Reference: article PMC1521118 (Environmental Health Perspectives, 1993)

Legend:
[1] = tested on: Salmonella typhimurium TA100; conditions: for mutagenic activity toward TA100 (in words): 100 ng/plate or less
[2] = tested on: Salmonella typhimurium TA100; conditions: cited from earlier work

ONc1ncnc2nc[nH]c12 [6-Hydroxylaminopurine]
histidine revertants/plate, TA100 ([1]; with (+) S9, 1 ng/plate): 170 + 22 histidine revertants/plate | mutagenicity toward TA100 ([2]; ref 35 (McCartney et al.)): mutagenic

ONc1ncnc2c1ncn2Cc1ccccc1 [9-Benzyl-6-hydroxylaminopurine]
mutagenic activity toward TA100 (in words) ([1]; absence of S9): highly active | mutagenic activity toward TA100 (in words) ([1]; presence of S9): even more active

Cn1cnc2c(N)ncnc21 [9-Methyladenine]
histidine revertants/plate, TA100 ([1]; without (-) S9, 100 ng/plate): 111 + 5 histidine revertants/plate

Nc1c2[nH]cnc2nc[n+]1[O-] [Adenine-1-N-oxide]
histidine revertants/plate, TA100 ([1]; with (+) S9, 100 ng/plate): 117 + 20 histidine revertants/plate

Nc1ncnc2nc[nH]c12 [Adenine]
histidine revertants/plate, TA100 ([1]; without (-) S9, 100 ng/plate): 108 + 15 histidine revertants/plate | mutagenicity toward TA100 [2]: inactive

Like-named read-outs stand apart in the source and are kept apart here.
